Among all 420,000 compounds or so, about 64,000 (15%) were called active. This list was built around the results that the source calls inconclusive (neither active nor inactive); the mix of calls is not that of the screen. The call rests on the fitted dose curve; in most records, active means well fitted inhibition curve with a large enough effect; inconclusive means small, poorly fitted or top-dose-only effect; inactive means flat fitted curve, though single readings scatter. Potencies of inconclusive entries are left out as doubtful fits.
Assay: qHTS for Inhibitors of human tyrosyl-DNA phosphodiesterase 1 (TDP1): qHTS in cells in absence of CPT; further: nearly all actives have a fitted effect of over 55% in size
Conditions: DT40 Tdp1-/- hTDP1 cells, no CPT, ATP luminescence, 48 h; activity change, negative = growth inhibition: at 46.2 µM (top of the series) unless noted
Method in brief: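 Chicken DT40 Tdp1-/- cells stably complemented with human TDP1 were seeded at 400 cells/well with DMSO in place of 20 nM camptothecin. After compound pinning, cells grew at least 48 hr at 37 °C; viability read by CellTiter-Glo luminescence.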
On the % scale 0 is the no-effect control and ±100 the full control effect; potency means the concentration at half of the fitted maximal effect; tags describe the fitted curve by direction and shape.

Row | Structure (SMILES) | Potency | activity change, negative = growth inhibition
1 | O=C(CSc1nccn1-c1ccc(Cl)cc1)Nc1ccc2c(c1)OCO2 | inconclusive [inhibitor, partial curve, poor fit] | 
2 | O=c1cnnc(N/N=C/C2CC=CCC2)[nH]1 (configuration not stated) |  | inactive: 10.9%
3 | CCc1ccccc1N(C)C(=O)Cn1cnc2sc(C)c(S(=O)(=O)N3CCN(c4ncccn4)CC3)c2c1=O | inconclusive [inhibitor, single point] | 
4 | Cc1ccc(-c2nc(C3CCCN(S(=O)(=O)c4ccc(C(C)(C)C)cc4)C3)no2)cc1 (configuration not stated) | inconclusive [inhibitor, partial curve, poor fit] | 
5 | O=C(CSc1nc2ncc(Cl)cc2[nH]1)Nc1ccccc1-c1ccccc1 | inconclusive [inhibitor, single point] | 
6 | O=C(CCc1nnc2ccc(N3CCC4(CC3)OCCO4)nn12)NCc1ccccc1Cl |  | inactive: 4.28%
7 | Cc1nc(Nc2nc3c(c(=O)[nH]2)CCC3)nc2ccccc12 | active: 4.11 µM | 
8 | COc1ccccc1CNC(=O)c1cc(-c2ccccc2)nn1Cc1cc(C)no1 | inconclusive [inhibitor, single point] | 
9 | N#Cc1nc(-c2ccc(OCc3ccc(Cl)cc3)cc2)oc1N1CCCC1 |  | inconclusive: -30.1% [inhibitor]
10 | O=C(Nc1ncccc1O)c1ccc(Cl)c(S(=O)(=O)N2CCCC2)c1 |  | inactive: -12.1%
11 | CSc1cccc(NC(=S)N(CCN(C)C)C(C)c2ccncc2)c1 (configuration not stated) | inconclusive [inhibitor, partial curve] | 
12 | CCOc1ccccc1CN1CCC(n2nccc2NC(=O)CCc2ccccc2)CC1 | inconclusive [inhibitor, single point] | 
13 | CC(C)NCC(O)Cn1c2c(c3ccccc31)CCc1c-2cnn1-c1ccccc1 (configuration not stated) | active: 5.8 µM | 
14 | COC(=O)c1ccc(Cn2nnc3sc4c(c3c2=O)CCC(C)C4)cc1 (configuration not stated) | inconclusive [inhibitor, partial curve] | 
15 | CCOc1ccccc1CNC(=O)CCn1ccc2cc(S(=O)(=O)N3CCC(C)CC3)ccc21 | active: 11.6 µM | 
16 | O=C(COC(=O)c1cccnc1Cl)Nc1cccc(S(=O)(=O)N2CCCCC2)c1 |  | inactive: -15.9%
17 | CCCCNC(=O)CSc1nc2ccccc2c(=O)n1Cc1ccc2c(c1)OCO2 |  | inactive: -12.4%
18 | O=C1C(=O)C(c2cc(O)c(O)c(O)c2)Oc2cc(O)cc(O)c21 (configuration not stated) | inconclusive [inhibitor, single point] | 
19 | CCNc1nc(N)nc(-c2cc(Cl)ccc2OC)n1 |  | inactive: -7.89%
20 | CCOc1ccc(Nc2nc(N)c3ccccc3n2)cc1 | inconclusive [inhibitor, partial curve, poor fit] | 
21 | COc1ccc(CN2C(=O)C(CC(=O)NC3CCCCC3)CC(C(=O)N3CCOCC3)=C2C)cc1 (configuration not stated) |  | inactive: -5.23%
22 | CC(=O)Oc1ccc2c(c1OC(C)=O)OCC1(O)Cc3c(cc(OC(C)=O)c(OC(C)=O)c3OC(C)=O)C21 (configuration not stated) | inconclusive [inhibitor, single point] | 
23 | COc1ccc(Nc2nc(NCCCN3CCOCC3)nc(N)c2[N+](=O)[O-])cc1 | inconclusive [inhibitor, single point] | 
24 | CCCS(=O)(=O)c1c(Nc2ccccc2C)sc(C(=O)c2ccccc2)c1N | active: 16.4 µM | 

Row | Structure (SMILES) | Potency | activity change, negative = growth inhibition
25 | O=c1c(Cl)c(Cl)cnn1Cc1ccc(F)cc1 | active: 13 µM | 
26 | COc1ccc(-c2nc3cnc(OC)nc3n(C[C@H]3CCCO3)c2=O)cc1 |  | inactive: -5.87%
27 | CCOc1ccc(CCNC(=O)c2cc3c(=O)[nH]c4ccc(C)cc4c3s2)cc1OCC | active: 18.4 µM | 
28 | CCC(Oc1ccccc1)C(=O)NCc1cccnc1 (configuration not stated) |  | inactive: -9.49%
29 | CCCCSc1nnc(-c2ccccc2)c2ccccc12 | inconclusive [inhibitor, single point] | 
30 | CCOc1ccc(N2C(=O)C3Sc4[nH]c(=O)sc4C(/C=C/c4ccccc4)C3C2=O)cc1 (configuration not stated) | inconclusive [inhibitor, partial curve, poor fit] | 
31 | O=C(NC1CCCc2ccccc21)c1ccc2c(c1)sc1nc(-c3ccc(F)cc3)cn12 (configuration not stated) | inconclusive [inhibitor, full curve] | 
32 | CC(=O)N1CCCN(Cc2cn(-c3cc(C)ccc3C)nc2-c2ccccc2)CC1 | inconclusive [inhibitor, partial curve] | 
33 | CC(C)Cn1c(SC(C)C(=O)Nc2ccc(N3CCOCC3)cc2)nc2ccccc21 (configuration not stated) | inconclusive [inhibitor, single point] | 
34 | O=C1c2ccccc2C(=O)N1CCOc1ccccc1Br |  | inactive: -1.32%
35 | O=C1OCCN1C(=O)[C@H]1[C@H](c2ccc(F)cc2)C(c2ccc(F)cc2)=NN1c1ccc(Br)cc1 | inconclusive [inhibitor, single point] | 
36 | COc1ccc(CN2CCc3ccccc3C2)c(OC)c1OC |  | inactive: -27.5%
37 | COc1ccc2c(CNCCc3cccs3)c(C(=O)O)n(Cc3ccccc3)c2c1 | inconclusive [inhibitor, single point] | 
38 | O=C(N/N=C/c1ccc([N+](=O)[O-])o1)c1ccncc1 | active: 9.2 µM | 
39 | CCOc1cc(/C=N/N=C2/NC(=O)C(CC(=O)O)S2)ccc1OCc1ccc(Cl)cc1Cl (configuration not stated) |  | inactive: -13.5%
40 | COc1ccc(CCN2C(=O)CC(Cc3cccc(C)c3)C2=O)cc1OC (configuration not stated) | inconclusive [inhibitor, single point] | 
41 | CCc1ccc2c(c1)NC(c1cccs1)=NC(c1ccc(F)cc1)=N2 | active: 23.1 µM | 
42 | CCN(c1ccccc1)S(=O)(=O)c1cccc(C(=O)NCC(c2ccc(OC)cc2)N2CCCCC2)c1 (configuration not stated) | active: 8.2 µM | 
43 | Cc1cccc(C2Nc3cccc4cccc(c34)N2)c1 | inconclusive [inhibitor, single point] | 
44 | CCN1C(=O)/C(=C2/C=CC=CN2C)SC1=S |  | inactive: -8.97%
45 | Cc1ccc(Cl)cc1NC(=O)C1CCC(CNS(=O)(=O)c2cccc3nsnc23)CC1 (configuration not stated) | inconclusive [inhibitor, single point] | 
46 | CC1CCN(c2nncc3ccccc23)CC1 | inconclusive [inhibitor, partial curve] | 
47 | O=S(=O)(CC=CCS(=O)(=O)c1ccccc1)c1ccccc1 |  | inactive: -22.9%
48 | CC(=O)N(Cc1cccnc1)c1nc2c(C)c(C)ccc2s1 | inconclusive [inhibitor, single point] | 

Row | Structure (SMILES) | Potency | activity change, negative = growth inhibition
49 | CCOc1ccc2nc(NC(=O)CSc3nnnn3C3CCCCC3)sc2c1 | inconclusive [inhibitor, partial curve] | 
50 | CCCCN(CC)CCNC(=O)c1cc2c(=O)oc3ccc(C)cc3c2s1 | inconclusive [inhibitor, single point] | 
51 | O=C(CSc1nnc(COc2cccc3cccnc23)o1)N1CCc2ccccc21 | active: 2.31 µM | 
52 | CC(=O)Nc1ccc(-c2csc(NCCc3ccccc3)n2)cc1 | inconclusive [inhibitor, single point] | 
53 | Cc1nnc(SC(C(=O)c2ccccc2)c2ccccc2)[nH]c1=O (configuration not stated) |  | inactive: -3.13%
54 | O=C(CN1CCCc2ccccc21)NC(=O)NC1CCCCC1 | inconclusive [inhibitor, single point] | 
55 | Brc1cccc(OCCSc2ncccn2)c1 | inconclusive [inhibitor, single point] | 
56 | O=C(CN1C(=O)CC(c2ccco2)Sc2ccccc21)NC1CCCCC1 (configuration not stated) |  | inconclusive: -33.4% [inhibitor]
57 | Cc1ccsc1C(=O)NNC(=O)c1cccc(S(=O)(=O)N2CCCC2)c1 | inconclusive [inhibitor, partial curve] | 
58 | CC(C)(C)C(=O)N1CCN(c2ccnc3cc(Cl)ccc23)CC1 | inconclusive [inhibitor, single point] | 
59 | Cc1cccc(NC(=O)c2cc3c([nH]c4ccccc43)c(C)n2)c1C | inconclusive [inhibitor, partial curve] | 
60 | Cc1cnc(CNc2ccnc(-c3ccccc3Cl)n2)cn1 |  | inactive: -5.27%
61 | Cn1c(N)c(C(=O)COC(=O)c2ccccc2C(F)(F)F)c(=O)n(C)c1=O | inconclusive [inhibitor, single point] | 
62 | COc1ccccc1C(=O)Nc1ccccc1N1CCCCC1 | active: 18.4 µM | 
63 | CC1CCc2c(sc3[nH]c(=S)n(C)c(=O)c23)C1 (configuration not stated) | inconclusive [inhibitor, single point] | 
64 | O=C(Cc1ccc(Br)cc1)Nc1cccc(-c2cn3c(n2)SCC3)c1 | inconclusive [inhibitor, single point] | 
65 | CCOc1ccc(N2CC(C(=O)Nc3cccnc3)CC2=O)cc1 (configuration not stated) |  | inactive: 1.17%
66 | CCC(CO)Oc1cc(NC(=O)c2cccc(Cl)c2)c2ncn(C(C)C)c2c1 (configuration not stated) | inconclusive [inhibitor, single point] | 
67 | Cc1cccc(Cn2cc(C(=O)Nc3ccc(F)c(C(F)(F)F)c3)ccc2=O)c1 | active: 14.6 µM | 
68 | OCCNc1nc(NCCC2=CCCCC2)nc(N2CCOCC2)n1 | active: 20.6 µM | 
69 | COCCSc1nc2c(c(=O)[nH]c(=O)n2C)n1Cc1cccc(C)c1 | inconclusive [inhibitor, partial curve] | 
70 | N/C(CCS(=O)(=O)c1ccc(Cl)cc1)=N\OC(=O)c1ccc(Cl)cc1 | active: 20.6 µM | 
71 | C#CCN(C[C@@H]1[C@@H](OC(=O)Nc2cccs2)[C@@H](OC(=O)Nc2cccs2)Cn2c(=O)n(CCCCCC)c(=O)n21)S(=O)(=O)c1ccc(C)cc1 | inconclusive [inhibitor, single point] | 
72 | O=C(NCc1cccc(F)c1)c1ccc(-n2cnc3cccnc32)cc1 | inconclusive [inhibitor, single point] | 

Reference: PubChem BioAssay AID686978 (National Center for Advancing Translational Sciences (NCATS), 2013)
